For 48 cell lines, AUC and IC50 results are on record in the supplement of paper PMC4967469.

Lines with a small IC50 respond at low doses; a limit (>, <) means that the fit lies beyond the doses tested. AUC is the area under the same curve over the 256-fold range up to the top dose, as a fraction: 1 means no effect, lower means more sensitive.

Compound in this assay: CC[C@H](Nc1ncnc2[nH]cnc12)c1nc2cccc(F)c2c(=O)n1-c1ccccc1 [CAL-101]
Kind of assay: Viability of human cancer cell lines after 72 h of drug (GDSC screen). Here is the method: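 Human cancer cell lines in 384-well plates, medium with 10% serum, drug for 72 h over a 256-fold dose range (nine 2-fold or five 4-fold steps up to the top dose). Adherent lines were fixed and stained with the nucleic acid dye Syto60, suspension lines read with resazurin; signal relative to control wells, capped at 0 and 100%. One two-parameter sigmoid per drug and line, fitted in a mixed model over all curves with the slope shared within a line.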

As usually defined, the IC50 is the midpoint of a concentration-inhibition curve. Turning to “KYSE-50 (oesophagus, adherent, top dose 20 µM)”, the AUC was 0.901 and the IC50 is over 20 µM.
For “KYSE-70 (oesophagus, adherent, top dose 20 µM)”, in that order: 0.975 and over 20 µM.
Take “KYSE-140 (oesophagus, adherent, top dose 20 µM)”: the AUC is 0.962 and the IC50 is over 20 µM.
As for “KYSE-150 (oesophagus, adherent, top dose 20 µM)”, the AUC came out at 0.985 and the half-inhibitory concentration (IC50) was over 20 µM.
For “KYSE-180 (oesophagus, adherent, top dose 20 µM)”, in that order: 0.966 and over 20 µM.
Turning to “KYSE-220 (oesophagus, adherent, top dose 20 µM)”, the AUC turned out to be 0.924 and the IC50 is over 20 µM.
For “KYSE-270 (oesophagus, adherent, top dose 20 µM)”, in that order: 0.991 and over 20 µM.
Take “KYSE-410 (oesophagus, adherent, top dose 20 µM)”: the AUC was 0.965 and the IC50 is over 20 µM.
For “KYSE-450 (oesophagus, adherent, top dose 20 µM)”, in that order: 0.883 and 19.4 µM.
For “KYSE-510 (oesophagus, adherent, top dose 20 µM)”, the AUC stood at 0.981 and the IC50 is over 20 µM.
For “KYSE-520 (oesophagus, adherent, top dose 20 µM)”, in that order: 0.922 and over 20 µM.
For “L-363 (myeloma, suspension, top dose 20 µM)”, in that order: 0.975 and over 20 µM.
On to “L-428 (Hodgkin lymphoma, suspension, top dose 20 µM)”, for which the AUC turned out to be 0.981 and the IC50 is over 20 µM.
Regarding “L-540 (Hodgkin lymphoma, suspension, top dose 20 µM)”, the AUC worked out at 0.985 and the IC50 was over 20 µM.
For “L-1236 (Hodgkin lymphoma, suspension, top dose 20 µM)”, in that order: 0.981 and over 20 µM.
For “LAMA-84 (chronic myeloid leukaemia, suspension, top dose 20 µM)”, in that order: 0.939 and over 20 µM.
For “LAN-6 (neuroblastoma, adherent, top dose 20 µM)”, in that order: 0.975 and over 20 µM.
Consider “LB373-MEL-D (melanoma, adherent, top dose 20 µM)”, for which the AUC came out at 0.981 and the IC50 was over 20 µM.
With “LB647-SCLC (small cell lung carcinoma, semi-adherent, top dose 20 µM)”, the AUC is 0.91 and the IC50 is over 20 µM.
For “LB771-HNC (head and neck, adherent, top dose 20 µM)”, in that order: 0.958 and over 20 µM.
For “LB831-BLC (bladder, adherent, top dose 20 µM)”, in that order: 0.978 and over 20 µM.
As to “LB996-RCC (kidney, adherent, top dose 20 µM)”, the AUC worked out at 0.982 and the IC50 is over 20 µM.
For “LB1047-RCC (kidney, adherent, top dose 20 µM)”, in that order: 0.959 and over 20 µM.
Regarding “LB2241-RCC (kidney, adherent, top dose 20 µM)”, the AUC is 0.982 and the IC50 is over 20 µM.
For the cell line “LB2518-MEL (melanoma, adherent, top dose 20 µM)”, the AUC was found to be 0.975 and the IC50 is over 20 µM.
For “LC4-1 (lymphoblastic leukaemia, suspension, top dose 20 µM)”, in that order: 0.706 and 5.1 µM.
For “LC-1-sq (lung squamous cell carcinoma, adherent, top dose 20 µM)”, in that order: 0.944 and over 20 µM.
For “LC-2-ad (lung adenocarcinoma, adherent, top dose 20 µM)”, in that order: 0.928 and over 20 µM.
As to “LCLC-97TM1 (large cell lung carcinoma, adherent, top dose 20 µM)”, the AUC amounted to 0.914 and the IC50 is over 20 µM.
For “LCLC-103H (large cell lung carcinoma, adherent, top dose 20 µM)”, in that order: 0.941 and over 20 µM.
As to “LK-2 (lung squamous cell carcinoma, adherent, top dose 20 µM)”, the AUC came to 0.986 and the IC50 was over 20 µM.
For “LN-18 (glioma, adherent, top dose 20 µM)”, in that order: 0.994 and over 20 µM.
For “LN-405 (glioma, adherent, top dose 20 µM)”, in that order: 0.922 and over 20 µM.
For “LNCaP-Clone-FGC (prostate, adherent, top dose 20 µM)”, in that order: 0.708 and 5.3 µM.
As for “LNZTA3WT4 (glioma, adherent, top dose 20 µM)”, the AUC was determined as 0.975 and the IC50 is over 20 µM.
As for “LOU-NH91 (lung squamous cell carcinoma, adherent, top dose 20 µM)”, the AUC stood at 0.976 and the IC50 is over 20 µM.
On to “LOXIMVI (melanoma, semi-adherent, top dose 20 µM)”, for which the AUC came to 0.986 and the IC50 is over 20 µM.
For “LP-1 (myeloma, suspension, top dose 20 µM)”, in that order: 0.948 and over 20 µM.
On to “LS-123 (large intestine, adherent, top dose 20 µM)”, for which the AUC was 0.871 and the IC50 was over 20 µM.
Take “LS-180 (large intestine, adherent, top dose 20 µM)”: the AUC came to 0.973 and the IC50 is over 20 µM.
Consider “LS-411N (large intestine, adherent, top dose 20 µM)”, for which the AUC was 0.951 and the IC50 is over 20 µM.
Take “LS-513 (large intestine, adherent, top dose 20 µM)”: the AUC came to 0.954 and the IC50 is over 20 µM.
As for “LS-1034 (large intestine, adherent, top dose 20 µM)”, the AUC turned out to be 0.962 and the IC50 was over 20 µM.
With “LU-65 (large cell lung carcinoma, suspension, top dose 20 µM)”, the AUC is 0.955 and the IC50 is over 20 µM.
For “LU-99A (large cell lung carcinoma, adherent, top dose 20 µM)”, in that order: 0.98 and over 20 µM.
Regarding “LU-134-A (small cell lung carcinoma, suspension, top dose 20 µM)”, the AUC turned out to be 0.978 and the 50% inhibitory concentration (IC50) was over 20 µM.
For “LU-135 (small cell lung carcinoma, suspension, top dose 20 µM)”, in that order: 0.989 and over 20 µM.
For “LU-139 (small cell lung carcinoma, suspension, top dose 20 µM)”, in that order: 0.977 and over 20 µM.
